Measured values as given in PubChem BioAssay AID1476 (National Center for Advancing Translational Sciences (NCATS), 2009).
Out of some 200,000 compounds screened, about 4,500 (2.2%) were called active. Inconclusive results, whose numbers are uncertain, are shown with a selection of clear calls. Calls follow the shape of the dose curve; as a rule, active = well fitted inhibition curve with a large enough effect; inconclusive = small, poorly fitted or top-dose-only effect, or effect the other way; inactive = flat fitted curve, though single readings scatter. Potencies beside an inconclusive call are fits to weak or partial responses and may not hold up.

molecular target: Cruzipain (Trypanosoma cruzi) (UniProt P25779); assay: qHTS Assay for Promiscuous and Specific Inhibitors of Cruzain (without detergent); conditions: purified cruzain, Z-FR-AMC fluorescence, no detergent; also: nearly all actives have a fitted effect of over 40% in size;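 as to max response, negative = inhibition: plate controls were enzyme without inhibitor for no effect and buffer without enzyme for full effect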
UniProt P25779, sequence (P25779 whole entry, looked up): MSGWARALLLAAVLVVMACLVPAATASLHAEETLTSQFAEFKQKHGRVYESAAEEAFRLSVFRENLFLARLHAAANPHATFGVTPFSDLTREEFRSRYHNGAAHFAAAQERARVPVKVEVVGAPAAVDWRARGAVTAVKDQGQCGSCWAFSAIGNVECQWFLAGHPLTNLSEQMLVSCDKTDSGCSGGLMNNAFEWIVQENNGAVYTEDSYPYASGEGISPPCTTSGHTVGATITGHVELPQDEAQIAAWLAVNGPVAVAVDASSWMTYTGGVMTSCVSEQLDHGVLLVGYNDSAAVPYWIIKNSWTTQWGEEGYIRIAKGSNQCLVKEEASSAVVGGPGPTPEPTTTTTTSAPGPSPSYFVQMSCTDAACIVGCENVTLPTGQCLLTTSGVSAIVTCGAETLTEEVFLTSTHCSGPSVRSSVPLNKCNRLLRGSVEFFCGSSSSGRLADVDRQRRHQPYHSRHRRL
In short: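 Detergent-free condition (0.00005% Triton X-100) in acetate buffer pH 5.5 with DTT. 1.5 nM enzyme and compound were pre-mixed 15 min, then 2 uM Z-FR-AMC substrate added; reaction progress from fluorescence change between first and third reads (60 s).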
Potency is read from the fitted curve at half-maximal effect; tags tell the direction and shape of the fitted curve.

Compound | max response, negative = inhibition | Potency
CC(NC(=O)C1CCN(S(=O)(=O)c2cc([N+](=O)[O-])ccc2Cl)CC1)c1ccccc1 (stereo not drawn) | inactive: -7.53% | 
CCc1ccc(C(=O)c2cn(CC(=O)Nc3cc(C)ccc3C)c3nc(C)ccc3c2=O)cc1 | inactive: 4.12% | 
CC(=O)N1CCCc2cc(S(=O)(=O)N3CCC(C(=O)Nc4cccc(Cl)c4C)CC3)ccc21 |  | inconclusive: 39.8 µM [activator, single point]
Cc1cc2ccccc2n1-c1ccc(C(=O)N2CCC(C(=O)NCc3ccc(Cl)cc3)CC2)s1 | inactive: 3.45% | 
C=CCOc1c(Br)cc(/C=N/Nc2ccc(C(=O)O)cc2)cc1OCC |  | inconclusive: 25.1 µM [inhibitor, single point]
Cc1nc2cc(-c3ccsc3-n3c(C)ccc3C)[nH]n2c(=O)c1Cl |  | inconclusive: 39.8 µM [inhibitor, single point]
COC(=O)c1ccc(CSc2nc3ccccc3c(=O)n2-c2ccc(OC)c(OC)c2)o1 |  | inconclusive: 25.1 µM [activator, single point]
CCOc1ccc(C(=O)CCN2CCCCCC2)cc1 |  | inconclusive: 20 µM [inhibitor, partial curve]
COc1ccc2c(CC(=O)Nc3nnc(C4CC4)s3)coc2c1 |  | inconclusive: 31.6 µM [inhibitor, single point]
Cc1cc(-c2ccc(C)c(S(=O)(=O)N3CCN(c4cccc(C(F)(F)F)c4)CC3)c2)on1 | inactive: -5.21% | 
Cc1ccc(N2CCN(C(=O)c3c(C)oc4ncn(CC(C)C)c(=O)c34)CC2)c(C)c1 |  | inconclusive: 39.8 µM [activator, single point]
Cc1[nH]n(CCC#N)c(=O)c1CC(=O)N1CCN(c2ccccc2)CC1 |  | inconclusive: 31.6 µM [activator, single point]
CCOc1ccccc1/C=c1\sc2ncnn2c1=O |  | inconclusive: 39.8 µM [activator, single point]
CCCCn1c(SCC(=O)Nc2cc(C(F)(F)F)cc(C(F)(F)F)c2)nnc1C(CC)N(C)C (stereo not drawn) |  | inconclusive: 39.8 µM [activator, single point]
Cc1nnc2ccc(N3CCN(c4cccc(C(F)(F)F)c4)CC3)nn12 |  | inconclusive: 31.6 µM [activator, single point]
Cc1ccc(NC(=O)c2cncc(Br)c2)c([N+](=O)[O-])c1 | inactive: -6.74% | 
CCN(CC)C(=O)c1sc2c(c1C)c(=O)n(-c1ccc(Cl)c(Cl)c1)c(=O)n2Cc1ccccc1C#N | inactive: -3.62% | 
COCCCNc1oc(/C=C/c2cc(OC)c(OC)c(OC)c2)nc1C#N |  | active: 20 µM
